Among the targets are SHP2 C-SH2 domain E139D; SHP2 N-SH2 domain L43F; SHP2 N-SH2 domain T42A; SHP2 N-SH2 domain T52S.
Assay in all cases: enrichment score (SH2-bound / input frequency) (ratio); bacterial display of known human phosphotyrosine sites (pTyr-Var adds point mutants) read by sequencing; higher = stronger binding; tyrosines were phosphorylated by kinases first
Holding throughout (conditions): peptide library: Human pTyr

Experiment [1] deals with SHP2 C-SH2 domain wild-type.
For experiment [2], the target named is SHP2 N-SH2 domain wild-type.

Some of the results follow. Cut-off read from the data, not from the text of the source: active = 3.2 or more and inactive = the rest. The signal is at background level for most entries.
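Note: displayed peptides selected on beads carrying the immobilized SH2 domain, with library peptides lacking any tyrosine serving as negative controls.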

Turning to EQAQKVRYEGSYALT [SDPR_HUMAN_395], the enrichment score with SHP2 C-SH2 domain E139D is inactive: 0.808; in experiment [1], inactive: 0.796; in the experiment with SHP2 N-SH2 domain L43F, inactive: 0.624; in the experiment with SHP2 N-SH2 domain T42A, inactive: 0.7; with SHP2 N-SH2 domain T52S, inactive: 0.677; in experiment [2], inactive: 0.649.

Consider ARAVENQYSFAGGGG [SH2B2_HUMAN_629_YA], for which the enrichment score with SHP2 C-SH2 domain E139D is inactive: 0.661; in experiment [1] it was inactive: 0.635; in the experiment with SHP2 N-SH2 domain L43F, inactive: 0.695; with SHP2 N-SH2 domain T42A, inactive: 0.577; with SHP2 N-SH2 domain T52S it was inactive: 0.671; in experiment [2] it was inactive: 0.545.

Turning to DRLSQGAYGGLSDRP [SH2B1_HUMAN_439], the enrichment score was inactive: 0.948 in the experiment with SHP2 C-SH2 domain E139D; inactive: 0.571 in experiment [1]; inactive: 0.892 in the experiment with SHP2 N-SH2 domain L43F; inactive: 0.514 with SHP2 N-SH2 domain T42A; inactive: 0.786 with SHP2 N-SH2 domain T52S; inactive: 0.536 in experiment [2].

As for FYFDENPYFENKVLS [SET_HUMAN_146], the enrichment score with SHP2 C-SH2 domain E139D is inactive: 0.981; in experiment [1], inactive: 1.33; in the experiment with SHP2 N-SH2 domain L43F, inactive: 1.12; in the experiment with SHP2 N-SH2 domain T42A, inactive: 0.812; in the experiment with SHP2 N-SH2 domain T52S it was inactive: 1.04; in experiment [2], inactive: 0.989.

On to INPETPGYVGFANLP [SEPT2_HUMAN_17], for which the enrichment score with SHP2 C-SH2 domain E139D was inactive: 0.731; in experiment [1], inactive: 0.624; in the experiment with SHP2 N-SH2 domain L43F it was inactive: 0.772; in the experiment with SHP2 N-SH2 domain T42A it was inactive: 0.584; in the experiment with SHP2 N-SH2 domain T52S, inactive: 0.645; in experiment [2], inactive: 0.696.

As for GPGTPAGYGRGREEA [SFPQ_HUMAN_691_YA], the enrichment score is inactive: 1.08 with SHP2 C-SH2 domain E139D; inactive: 1.08 in experiment [1]; inactive: 0.991 with SHP2 N-SH2 domain L43F; inactive: 0.888 with SHP2 N-SH2 domain T42A; inactive: 0.98 with SHP2 N-SH2 domain T52S; inactive: 0.928 in experiment [2].

For the molecule IPHDGNLYPRLAPEL [SDCB1_HUMAN_46_YA], the enrichment score was inactive: 0.566 with SHP2 C-SH2 domain E139D; inactive: 0.572 in experiment [1]; inactive: 0.548 with SHP2 N-SH2 domain L43F; inactive: 0.511 with SHP2 N-SH2 domain T42A; inactive: 0.561 with SHP2 N-SH2 domain T52S; inactive: 0.577 in experiment [2].

With AGKQKLQYEGIFIKD [SF3A1_HUMAN_759], the enrichment score with SHP2 C-SH2 domain E139D is inactive: 1.3; in experiment [1], inactive: 1.2; with SHP2 N-SH2 domain L43F, inactive: 1.32; with SHP2 N-SH2 domain T42A, inactive: 1.22; with SHP2 N-SH2 domain T52S, inactive: 1.2; in experiment [2], inactive: 1.1.

Turning to ATQPEPIYAESTKRK [SG223_HUMAN_413], the enrichment score is inactive: 0.915 in the experiment with SHP2 C-SH2 domain E139D; inactive: 0.809 in experiment [1]; inactive: 1 with SHP2 N-SH2 domain L43F; inactive: 0.899 in the experiment with SHP2 N-SH2 domain T42A; inactive: 0.985 with SHP2 N-SH2 domain T52S; inactive: 1.13 in experiment [2].

For the molecule FVNSNSDYVDVLPGG [SH21B_HUMAN_127], the enrichment score was inactive: 0.613 in the experiment with SHP2 C-SH2 domain E139D; inactive: 0.718 in experiment [1]; inactive: 0.562 with SHP2 N-SH2 domain L43F; inactive: 0.681 in the experiment with SHP2 N-SH2 domain T42A; inactive: 0.588 in the experiment with SHP2 N-SH2 domain T52S; inactive: 0.546 in experiment [2].

For the molecule KKDELSDYAEKSTGK [ATRX_HUMAN_1063], the enrichment score is inactive: 1.07 with SHP2 C-SH2 domain E139D; inactive: 0.804 in experiment [1]; inactive: 0.85 with SHP2 N-SH2 domain L43F; inactive: 0.826 with SHP2 N-SH2 domain T42A; inactive: 0.985 in the experiment with SHP2 N-SH2 domain T52S; inactive: 1.24 in experiment [2].

Regarding SPSPEPIYNSEGKRL [SF01_HUMAN_87], the enrichment score with SHP2 C-SH2 domain E139D is inactive: 0.669; in experiment [1] it was inactive: 0.651; with SHP2 N-SH2 domain L43F, inactive: 0.642; in the experiment with SHP2 N-SH2 domain T42A it was inactive: 0.512; with SHP2 N-SH2 domain T52S, inactive: 0.644; in experiment [2], inactive: 0.759.

With FPFEAEAYRNIEPVA [ATR_HUMAN_310_YA], the enrichment score with SHP2 C-SH2 domain E139D is inactive: 0.593; in experiment [1], inactive: 0.633; with SHP2 N-SH2 domain L43F, inactive: 0.454; with SHP2 N-SH2 domain T42A it was inactive: 0.51; in the experiment with SHP2 N-SH2 domain T52S, inactive: 0.77; in experiment [2] it was inactive: 0.603.

As for VVKAGESYTHIQYLF [SH2D3_HUMAN_278], the enrichment score is inactive: 3.03 with SHP2 C-SH2 domain E139D; active: 4.84 in experiment [1]; inactive: 1.68 in the experiment with SHP2 N-SH2 domain L43F; inactive: 1.69 with SHP2 N-SH2 domain T42A; inactive: 1.42 with SHP2 N-SH2 domain T52S; inactive: 2.27 in experiment [2].

Take EEHNIKIYHLPDAES [SEPT2_HUMAN_211]: the enrichment score in the experiment with SHP2 C-SH2 domain E139D was inactive: 0.839; in experiment [1] it was inactive: 0.998; with SHP2 N-SH2 domain L43F, inactive: 1.22; with SHP2 N-SH2 domain T42A, inactive: 0.872; with SHP2 N-SH2 domain T52S, inactive: 1.12; in experiment [2], inactive: 1.04.

On to SLRADTSYFVEAFAL [SDHA_HUMAN_215_YA], for which the enrichment score with SHP2 C-SH2 domain E139D is inactive: 0.937; in experiment [1], inactive: 0.953; with SHP2 N-SH2 domain L43F, inactive: 0.91; with SHP2 N-SH2 domain T42A, inactive: 1.04; with SHP2 N-SH2 domain T52S, inactive: 0.99; in experiment [2], inactive: 1.11.

For KKKDEGSYTLEEPKQ [SDC3_HUMAN_419], the enrichment score is inactive: 1.55 in the experiment with SHP2 C-SH2 domain E139D; inactive: 1.13 in experiment [1]; inactive: 1.14 in the experiment with SHP2 N-SH2 domain L43F; inactive: 1.07 with SHP2 N-SH2 domain T42A; inactive: 0.918 in the experiment with SHP2 N-SH2 domain T52S; inactive: 1.44 in experiment [2].

Turning to GGGGMSLYPSLEDLK [SDCBP_HUMAN_4], the enrichment score is inactive: 0.695 in the experiment with SHP2 C-SH2 domain E139D; inactive: 0.441 in experiment [1]; inactive: 0.747 with SHP2 N-SH2 domain L43F; inactive: 0.547 in the experiment with SHP2 N-SH2 domain T42A; inactive: 0.585 with SHP2 N-SH2 domain T52S; inactive: 0.665 in experiment [2].

For the origin of these results see the supplement of paper PMC10369915.
